# Data: the supplement of paper PMC7826260
# Some of the results follow. Cleavage of a single-stranded DNA pool by Rep nickase domains was read by sequencing (1 h at 37 °C, 3 µM enzyme); the outer parts of the 90-letter strands are left off. Values are log2 of uncut reads against the no-enzyme pool; strong cutting gives strongly negative numbers. There is no active / inactive call. The scaling is to total reads; where an enzyme cuts many sequences, the uncut ones exceed 0.
# System: T1, Rep nickase domain of tomato golden mosaic virus
# T1 sequence (residues 1-124 of Rep, tag left off): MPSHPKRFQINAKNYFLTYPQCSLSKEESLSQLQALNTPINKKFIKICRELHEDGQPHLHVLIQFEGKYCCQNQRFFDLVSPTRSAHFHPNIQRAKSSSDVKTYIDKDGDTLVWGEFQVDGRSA
# Test: uncleaved DNA left, log2 of reads against the no-enzyme library (log2 ratio); higher = less cleavage (more negative = more Rep cleavage of the k-mer); sequences stand for … in CTCGTCCG…ACCGGAGA
# Method: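 A pool of 90-nt single-stranded DNAs with seven random bases just before the constant AC of the nick site (name = the seven bases) was cut by 3 µM recombinant His6-SUMO-tagged Rep nickase domain (300 nM DNA, 50 mM HEPES pH 8.0, 50 mM NaCl, 1 mM MnCl2, 1 h, 37 °C, three replicates). Uncut DNA was amplified and sequenced.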
row,Sequence,uncleaved DNA left (log2)
1,CTGGCCA,0.0603
2,TTAGACC,0.102
3,GACCAGA,-0.034
4,CCCAGGT,0.0468
5,GGTGCGG,0.077
6,AAACATC,-0.0578
7,TTCAGAT,-0.0298
8,TCTAGAT,-0.124
9,GTTGTAC,0.0385
10,TCATGCT,-0.173
11,TATCGCC,-0.0836
12,CGAATTT,-0.0833
13,AAGACAA,0.146
14,AGTGCCG,-0.258
15,GATTAAA,0.195
16,AATACAG,-0.0126
17,GACAACA,-0.00522
18,ATTACCG,0.0206
19,CCGGTAT,0.178
20,GCAATCC,0.0195

row,Sequence,uncleaved DNA left (log2)
1,TCACATG,-0.0493
2,CGAAAGC,0.0992
3,GGTCCCC,-0.155
4,TTTAGCG,-0.135
5,ACCTCTT,-0.0747
6,GCCATCC,-0.0529
7,GAATCTC,-0.815
8,CAGCGCG,-0.105
9,TCCCATA,-0.0484
10,ACGCCGC,-0.113
11,TTAGGTT,0.124
12,TGGTAGC,-0.0437
13,CAAGAGT,-0.182
14,CTGAGAC,-0.213
15,AACGTCT,-0.0639
16,ATCACTA,-0.0145
17,AGCAATT,0.0314
18,CATCAGA,-0.0489
19,AAGGTAA,0.158
20,GGCGGCG,0.16
